# Test results as given in the supplement of paper PMC12217912.
# The list shows a part of the results. The full chains were built here from the parent and the listed change. Values near 0.05 are background.
# B1: TEV protease; numbered along this chain (parent)
# chain: MGESLFKGPRDYNPISSSICHLTNESDGHTTSLYGIGFGPFIITNKHLFRRNNGTLVVQSLHGVFKVKDTTTLQQHLVDGRDMIIIRMPKDFPPFPQKLKFREPQREERICLVTTNFQTKSMSSMVSDTSCTFPSGDGIFWKHWIQTKDGQCGSPLVSTRDGFIVGIHSASNFTNTNNYFTSVPKNFMELLTNQEAQQWVSGWRLNADSVLWGGHKVFMVKPEEPFQPVKEATQL
# Variants of: B1
# Experiment: raw area under fraction-flipped curve 0-4 h after induction (AUC4h, not background-subtracted), DNA-recorder readout of cleavage of the substrate (dimensionless); higher = more cleavage of the substrate by the protease variant
# Settings: temperature: 34 °C; time window: 0-4 h after rhamnose induction
# Method: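 In vivo DNA recorder in E. coli TOP10(DE3) ΔrhaA at 34 °C. Each TEVp single-site mutant (parent TEVp 0) is paired with a single-site variant of the 7-mer TEVs (canonical ENLYFQ|S). The substrate sits between flexible linkers in a Bxb1-sfGFP-TEVs-SsrA fusion, so cleavage stabilises Bxb1 and speeds flipping of a recombination array, read by NGS. The value is the raw area under the fraction-flipped curve over 0-4 h after rhamnose induction (AUC4h), with ≥20 reads per time point. It is not background-subtracted; inactive controls average about 0.047.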
# 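Note: Bxb1 expression induced with 0.2% (w/v) L-rhamnose at OD600 near 0.5, cultures sampled hourly, flipped fraction per protease–substrate barcode pair counted by paired-end Illumina sequencing.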
Variant,area with substrate ENLYFQA,area with substrate ENLYFQF,area with substrate ENLYFQH,area with substrate ENLYFQI,area with substrate ENLYFQL,area with substrate ENLYFQM,area with substrate ENLYFQN,area with substrate ENLYFQS,area with substrate ENLYFQC,area with substrate ENLYFQD,area with substrate ENLYFQE,area with substrate ENLYFQG,area with substrate ENLYFQK,area with substrate ENLYFQR,area with substrate ENLYFQW,area with substrate ENLYFQY,area with substrate ENLYFQV,area with substrate ENLYFQP,area with substrate ENLYFQQ,area with substrate ENLYFQT
F92T,0.108,0.0748,0.0622,0.0581,0.0866,0.0779,0.0962,0.1,–,–,–,–,–,–,–,–,–,–,–,–
D79L,0.0983,–,0.0628,–,0.0528,0.0601,–,0.0938,0.109,0.0644,0.0574,0.086,0.0721,0.0654,0.047,0.0706,–,–,–,–
D79V,0.095,0.0648,0.0622,0.0595,0.0738,–,–,0.0974,0.102,0.0725,–,0.0895,0.0609,0.0469,0.0588,0.0695,0.0527,–,–,–
D79G,0.0531,–,–,–,0.0204,0.0865,0.0733,0.095,–,0.0848,–,0.0858,–,0.0743,0.0596,0.0807,–,0.0608,0.0597,0.0645
T55E,0.0907,–,0.0765,0.0578,0.0643,0.0891,0.0709,0.0987,0.101,0.0774,–,0.0782,0.0609,0.0696,–,0.0856,0.0464,–,0.0861,0.0662
T55I,0.074,–,–,–,0.0602,0.0825,–,0.0992,–,0.0539,–,0.105,–,0.064,0.0637,0.0675,0.0548,–,–,0.0624
V57M,0.114,0.0522,–,0.0588,0.0555,–,0.0979,0.103,–,0.0504,–,–,0.0674,0.052,0.0789,0.0346,0.053,–,0.0751,0.0792
V57Y,0.104,0.0943,0.0865,0.0697,0.0673,–,0.0675,0.0956,0.0997,0.0882,–,0.083,0.0589,–,–,–,0.0577,–,–,0.0635
R50L,0.0924,–,0.11,–,–,0.079,0.101,0.131,0.14,–,–,0.145,–,0.0579,0.0631,–,0.0481,0.056,0.0743,0.0656
G80H,0.102,0.0781,0.0783,0.0455,–,0.0812,0.0848,0.106,0.154,0.0797,–,–,0.0615,–,0.0552,–,–,0.0664,–,0.0691
K98Q,0.101,–,0.0932,0.0592,–,–,0.0879,0.114,–,0.0749,–,0.147,0.0851,0.0214,0.0882,0.0768,–,0.0529,0.0763,–
L61A,0.0859,–,–,0.0539,0.0592,–,0.111,0.0959,0.104,0.0736,–,0.0949,–,0.0722,–,–,–,0.0748,0.0451,0.0658
R81G,0.0804,–,–,0.0629,0.0599,–,–,0.0929,0.0992,–,0.0633,0.0867,–,0.0567,–,0.0813,–,–,–,0.0597
F95S,0.0962,–,0.0635,0.0531,0.0539,0.0725,0.0649,0.087,0.0755,0.0632,–,0.0769,–,0.0606,0.074,0.0653,0.05,0.0477,0.0507,0.0671
F95R,0.0806,–,0.0699,0.0489,0.0566,0.0538,–,0.071,0.0753,0.0584,–,0.0748,–,0.0654,0.0425,0.0542,0.0277,–,0.0553,0.0551
Q74G,0.0914,0.0905,0.0653,0.106,–,0.0933,0.0467,0.0993,0.116,–,–,0.167,0.07,0.0575,0.0549,0.0822,–,–,–,0.073
Q74D,0.103,–,0.101,0.0648,0.0661,0.0903,0.0582,0.104,0.106,0.089,–,0.0917,0.0508,0.0555,0.0387,0.0828,0.0517,0.0501,0.0734,0.0604
I86R,0.0404,–,0.0449,0.0351,0.0443,–,0.0358,0.0427,0.0346,–,–,0.0244,–,–,0.0305,0.0248,0.0433,–,–,0.0318
N53G,0.08,0.0778,0.0755,0.0622,0.0645,0.0826,0.0736,0.0858,0.0834,–,–,0.0899,–,0.0576,0.0662,0.0556,0.0548,–,–,0.0599
V67R,0.0559,0.0412,–,0.0528,0.0532,–,–,0.0608,0.0607,0.0333,–,0.0604,0.0517,0.0554,0.0479,–,0.0468,–,–,0.0491
P89F,0.04,–,0.0287,0.0611,0.0539,–,0.0554,0.0685,0.0731,0.0243,–,0.0721,–,–,–,–,–,–,–,0.0441
P89W,0.0674,0.0446,–,0.0429,0.0427,–,–,0.0703,0.0718,–,–,0.0669,0.0602,0.052,–,–,–,–,–,0.045
P89E,0.0606,0.068,0.0717,0.064,0.0579,0.09,0.0952,0.0925,0.102,–,–,0.0886,0.0535,0.0569,0.0624,0.0655,0.058,–,–,0.05
G63F,0.0832,0.0787,0.0714,0.058,0.0702,0.0898,0.0621,0.0947,0.0888,0.0733,–,0.0842,0.0573,–,–,–,0.063,0.059,0.0682,–
G63N,0.0587,–,0.0666,0.0226,–,0.0812,–,0.0841,0.0984,0.0584,–,0.0853,–,–,–,–,0.082,–,–,0.0607
G63I,0.0788,0.0508,–,–,0.0599,–,–,0.0849,0.0867,0.0649,–,–,0.056,0.0625,0.0579,–,0.0551,0.0527,–,0.0772
